Measured values published in article PMC6956818, “Activation of JNK and p38 MAPK Mediated by ZDHHC17 Drives Glioblastoma Multiforme Development and Malignant Progression” (Theranostics, 2020).
Results are given in words; binding and its absence hold for the method and conditions named. In cells and extracts the contact can be indirect. Some results given as binding are weak or reduced against the parent protein; the word gives no strength. Where a sequence is shown, tags or fusion partners need not be part of it.

Protein sequences, listed by entry. Tags and fused reporters are not part of them.
UniProt P45983: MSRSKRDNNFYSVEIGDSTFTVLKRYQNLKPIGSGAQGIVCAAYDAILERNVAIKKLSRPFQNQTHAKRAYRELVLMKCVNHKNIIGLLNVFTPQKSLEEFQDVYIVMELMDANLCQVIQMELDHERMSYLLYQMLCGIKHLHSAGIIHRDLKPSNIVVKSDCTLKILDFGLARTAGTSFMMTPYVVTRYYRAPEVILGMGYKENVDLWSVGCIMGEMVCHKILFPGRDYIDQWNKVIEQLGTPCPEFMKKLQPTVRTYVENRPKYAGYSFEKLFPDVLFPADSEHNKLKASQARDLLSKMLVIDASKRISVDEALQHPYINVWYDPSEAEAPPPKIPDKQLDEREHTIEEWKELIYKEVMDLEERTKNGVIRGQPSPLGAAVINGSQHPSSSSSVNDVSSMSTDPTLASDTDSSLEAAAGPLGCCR

Target: GFP-JNK1 (UniProt P45983)
Assay: co-IP; GFP-JNK1 (or GFP-p38) and FLAG-MAP2K4 in HEK293 cells, with or without Myc-ZDHHC17; IP of JNK1 (or p38), MAP2K4 detected

B1: Flag-MAP2K4 (protein, UniProt P45985 1-399)
chain: MAAPSPSGGGGSGGGSGSGTPGPVGSPAPGHPAVSSMQGKRKALKLNFANPPFKSTARFTLNPNPTGVQNPHIERLRTHSIESSGKLKISPEQHWDFTAEDLKDLGEIGRGAYGSVNKMVHKPSGQIMAVKRIRSTVDEKEQKQLLMDLDVVMRSSDCPYIVQFYGALFREGDCWICMELMSTSFDKFYKYVYSVLDDVIPEEILGKITLATVKALNHLKENLKIIHRDIKPSNILLDRSGNIKLCDFGISGQLVDSIAKTRDAGCRPYMAPERIDPSASRQGYDVRSDVWSLGITLYELATGRFPYPKWNSVFDQLTQVVKGDPPQLSNSEEREFSPSFINFVNLCLTKDESKRPKYKELLKHPFILMYEERAVEVACYVCKILDQMPATPSSPMYVD
binding: binds
